B1: LINE1-mini (parent)
chain: GGCAGAGCUCAACACAGCGUGGCAAAGUGGCUGUGGCUAGACUGCC

The source gives no read counts; variants with many changes may rest on few reads.

This data set covers variants of B1. Nature of the data set: self-cleavage, relative activity (ratio to wild type); higher = more cleavage; in vitro, sequencing; the parent is a self-cleaving ribozyme.
Regarding C10G U28C U32G G33A, the self-cleavage was 0.

Regarding C10U A12C G36A, the self-cleavage turned out to be 0.02.

In the case of G5C A11C C13G A26G G36A, the self-cleavage was found to be 0.01.

On to A4C A25C U43C, for which the self-cleavage came to 0.01.

Turning to G22C G29A G44U, the self-cleavage is 0.14.

For the variant A4G A6G G30C U34G U38A, the self-cleavage was found to be 0.

Take C8G U20A U38A: the self-cleavage came out at 0.07.

Turning to C3A G36U U43A, the self-cleavage came to 0.27.

Turning to G7U G21C G33A, the self-cleavage was 0.08.

Consider G2C A12G U34A, for which the self-cleavage amounted to 0.01.

Consider U9C G19A U34C C46A, for which the self-cleavage was determined as 0.01.

As for G7U C8U U28C C45G, the self-cleavage is 0.09.

Take G1A A4G A14U G21A: the self-cleavage was 0.08.

For the variant C13A G29U U32C, the self-cleavage amounted to 0.04.

Take A26U C31A C42U C46U: the self-cleavage was determined as 0.

In the case of C15U A16C G36A, the self-cleavage came out at 0.04.

For C3G G36U A41G, the self-cleavage amounted to 0.06.

Take A11U A14G U32A: the self-cleavage stood at 0.02.

Consider G2C G7A A14C A26C G36A, for which the self-cleavage was found to be 0.32.

For the variant G1C A6G C8U G27A G40U, the self-cleavage was determined as 0.01.

Turning to A6G C18G G33U, the self-cleavage stood at 0.06.

As to G7A A26U G30C, the self-cleavage turned out to be 0.14.

For G1A G2C G5A C8U A24C, the self-cleavage was found to be 0.13.

Regarding A6U G21A C23A G40A G44U, the self-cleavage amounted to 1.03.

As to A6U A11U G22C, the self-cleavage is 0.17.

Consider G1C A16C G21U, for which the self-cleavage is 0.02.

With G1U C18G G35A, the self-cleavage was 0.01.

Regarding A11U G33U U34A, the self-cleavage came out at 0.04.

Consider G1U G2C A4G, for which the self-cleavage came to 0.26.

With G21U A25U C46G, the self-cleavage was 1.68.

Turning to C3G G5U G7U A26C, the self-cleavage worked out at 0.16.

Regarding C10G A26C G44A, the self-cleavage amounted to 0.02.

Regarding A14U C15U C46A, the self-cleavage was 0.17.

As to G1A C13A A16U U20A C23A C31A, the self-cleavage turned out to be 0.04.

Take A16G G19U G21U G35U: the self-cleavage turned out to be 0.01.

Turning to U9C A16G G40U, the self-cleavage came to 0.01.

On to G2U U28G U43C, for which the self-cleavage amounted to 0.17.

With C10A U32G C37U A39C, the self-cleavage came to 0.

For C15U U28C U34A, the self-cleavage came out at 0.01.

On to G22A C23U U28A A41G, for which the self-cleavage was 0.15.

For C18A G33C G40A, the self-cleavage was determined as 0.02.

As to U28A C42G C46U, the self-cleavage was found to be 0.02.

Regarding G1U G2A G7C A16U C18U U34G, the self-cleavage was 0.11.

Take G7U G19C C23A A25C: the self-cleavage amounted to 0.01.

Turning to A6U C13A A14U G30C U38A, the self-cleavage is 0.15.

With U9G C31U G36U, the self-cleavage is 0.01.

With A6C C10A A25C G29C C45G, the self-cleavage was 0.08.

For G2U C3G G5C C13U, the self-cleavage came to 0.11.

As to A4C G7A G30C C31U U32A, the self-cleavage was 0.35.

Consider C18U G36C G44U, for which the self-cleavage was found to be 0.07.

Take C3A G7A C8A A39C: the self-cleavage is 2.1.

Regarding C3A U9A G30C U32G G36U A39G, the self-cleavage came to 0.08.

In the case of A14G C15A A26C A41U, the self-cleavage is 0.03.

In the case of G7U A14G C15A G36C A39U A41G, the self-cleavage was 0.05.

G5U A12U A26U C42A: the self-cleavage is 0.03.

As to C31G U34G G36C, the self-cleavage came out at 0.01.

For the variant U9A G33A C37A, the self-cleavage turned out to be 0.09.

In the case of C3A U9C A14U G35A, the self-cleavage amounted to 0.04.

For C10U C37A C45A, the self-cleavage was 0.01.

Regarding G1C C15A C31A G44A C46A, the self-cleavage was determined as 0.

As for U9A C10G C31A G40U U43C, the self-cleavage came out at 0.03.

C3A C23U U43A G44A: the self-cleavage came to 0.15.

For U9A C15U G44A, the self-cleavage was 0.92.

Regarding A14G G35C C45G, the self-cleavage stood at 0.7.

Take C13U G17A U28C: the self-cleavage turned out to be 0.15.

In the case of G5A A14U G22C C42U, the self-cleavage worked out at 0.3.

For C23G G35U G44C C46G, the self-cleavage stood at 0.01.

Consider C15G G30A G40U, for which the self-cleavage worked out at 0.01.

With C8U C10G C15U G17C G35U A41C G44C, the self-cleavage was 0.01.

Turning to G1U G21A A25G G30A U32A, the self-cleavage turned out to be 0.13.

For the variant G7U A39U G44A, the self-cleavage came out at 0.06.

Regarding G5C A6G G30C U32G, the self-cleavage is 0.

For the variant C10A C18U C42U, the self-cleavage stood at 0.05.

Consider U9A A14G G21U, for which the self-cleavage was found to be 0.09.

A12G G19A U28A C37U: the self-cleavage amounted to 0.02.

On to G5A C8G C10A C18U, for which the self-cleavage stood at 0.04.

As for G7C G17U G27C, the self-cleavage was determined as 0.06.

For the variant G5A A12C G22U, the self-cleavage amounted to 0.05.

For A4G G7A G29U, the self-cleavage came out at 0.15.

Turning to G19A G35A G36C G44A C46G, the self-cleavage turned out to be 0.04.

Take G7U A26U U32G G36U: the self-cleavage came to 0.06.

As for U28G C31U G40C C45A C46U, the self-cleavage worked out at 0.

Regarding C18A G22C U32A G35C U38G C45G, the self-cleavage was 0.01.

As for C23G A25G G36A, the self-cleavage amounted to 0.06.

For G1A A4C A6C A11C, the self-cleavage was determined as 0.03.

Regarding G17U C18A G21U, the self-cleavage worked out at 0.05.

C18A G27U U43C G44U: the self-cleavage was found to be 0.05.

For the variant A12G G21U G40U, the self-cleavage was found to be 0.05.

In the case of C3A U28A G30U A39C, the self-cleavage came out at 0.19.

Turning to C8G G22A G40A, the self-cleavage worked out at 0.08.

For the variant G1A G17U G19C U43C, the self-cleavage stood at 0.07.

C13A A14C G27U: the self-cleavage is 0.04.

Turning to C10A A14C C37U C46U, the self-cleavage came to 0.

With A4U G30U U32G, the self-cleavage is 0.05.

As to G1A C8U C10A G44A, the self-cleavage is 0.07.

Consider A4C C18A C23A U34G U38G, for which the self-cleavage came to 0.03.

For G5A G30A U38C, the self-cleavage is 0.15.

With G5U C10G G29C, the self-cleavage is 0.03.

G27A C31G C37U: the self-cleavage worked out at 0.15.

C8G A11C C23A G36A: the self-cleavage came out at 0.01.

For the variant A14U G21U C45A, the self-cleavage was 0.12.

Regarding A6C G33U U34G, the self-cleavage was determined as 0.05.

With U9G A26U U32C, the self-cleavage amounted to 0.04.

Turning to G2A U9C C10A A12C G17A C31U G33C G36C, the self-cleavage amounted to 0.

With A4C A12G C18U A26U U34G, the self-cleavage turned out to be 0.07.

Turning to G2U A4U C18U G22C G27A, the self-cleavage was 0.24.

As to G17C C42A G44C, the self-cleavage is 0.03.

For C18A A25G C37U, the self-cleavage was determined as 0.03.

For the variant C10G G29A G35C, the self-cleavage came out at 0.02.

Regarding C8G G35U G40U C46U, the self-cleavage was 0.06.

As for G5A G7C A12U U20G, the self-cleavage was 0.04.

Consider A6G G30C C31A C37U C46U, for which the self-cleavage is 0.01.

For G30U C31G U32C, the self-cleavage was 0.1.

On to C8G U20G A26U U28C C46G, for which the self-cleavage amounted to 0.

G5U A12U G22C C23U: the self-cleavage turned out to be 0.02.

On to A26C G33U C45U, for which the self-cleavage worked out at 0.41.

Take G7U A24G A25G G44A: the self-cleavage came out at 0.1.

On to A6C U20C C37G A39C C45G, for which the self-cleavage turned out to be 0.

For the variant C13A G17U A39C, the self-cleavage was found to be 0.14.

On to C3A A12U U20G, for which the self-cleavage was found to be 0.07.

For the variant C13U G17C G44U, the self-cleavage was found to be 0.1.

On to C3A A6G G33C G35C C46U, for which the self-cleavage worked out at 0.04.

Take G1A U9G A16C A25G: the self-cleavage stood at 0.16.

Regarding C10A A41U C42U, the self-cleavage is 0.01.

As for C10U A25U G30U, the self-cleavage was 0.27.

Regarding G22C A26G G27C U43A, the self-cleavage came out at 0.04.

For the variant A26U C31G U38G, the self-cleavage amounted to 0.

For C10A A16G U43C, the self-cleavage stood at 0.

Regarding A14G U32G A41C U43A, the self-cleavage stood at 0.05.

Consider C10A G29U G40U U43A, for which the self-cleavage came out at 0.01.

For A11U G29U U32A U34C G36C C37U U38G, the self-cleavage is 0.

As for G2A U43A C45A, the self-cleavage is 0.52.

Consider C8A G27C U34A C42U G44U, for which the self-cleavage came out at 0.24.

In the case of G17A A26G G29U G35U, the self-cleavage was 0.02.

As for A4G A11C C18U, the self-cleavage came to 0.

As to G7U C8U G21C U38C, the self-cleavage turned out to be 0.12.

Turning to C18U C23A G33A G35C U38C, the self-cleavage was found to be 0.05.

For U20A G44C C45U, the self-cleavage came out at 0.03.

For G19U G33A U38C, the self-cleavage worked out at 0.03.

Consider C13U A24U U32C, for which the self-cleavage was 0.09.

Regarding C15A G19U A25G, the self-cleavage was 0.04.

Regarding G5A A25G G33A, the self-cleavage came out at 0.16.

For A25G C42G C45U, the self-cleavage was found to be 0.06.

Consider C8G A14C G29C U43A, for which the self-cleavage is 0.01.

On to U28A C31U C37A U38C, for which the self-cleavage turned out to be 0.02.

For G7A U9C A39C G44U, the self-cleavage stood at 0.02.

G7A C13A C23A: the self-cleavage was 0.34.

As to G2U G17A C18A U20C A26C U34C, the self-cleavage was 0.01.

As for C13A C18G G29A, the self-cleavage was found to be 0.03.

As to G7A C10G U20G, the self-cleavage was 0.

With G2C A16G G17A G22A U34G, the self-cleavage stood at 0.01.

Consider C13A G17U G30U C37U, for which the self-cleavage turned out to be 0.08.

Consider G1C A12G C31U G35C G36U C42A, for which the self-cleavage was 0.

Consider A6C U20G G27A C31U C42A, for which the self-cleavage was determined as 0.06.

A4C G22A G36U C37U: the self-cleavage turned out to be 0.02.

In the case of A12G C15A C18A, the self-cleavage amounted to 0.03.

With C18G G21U U43G, the self-cleavage is 0.

As for A6U G7C C42G, the self-cleavage was found to be 0.02.

Turning to G5C A14C G17C G22C, the self-cleavage is 0.04.

In the case of C10U U32C G36C G40C C42G, the self-cleavage came to 0.03.

As for G1A A12C G17A G35C, the self-cleavage was 0.03.

In the case of C13A C23A G29U G44A, the self-cleavage stood at 0.05.

Consider G2C C3G A26U A41U, for which the self-cleavage turned out to be 0.11.

G2C U9G C45U C46U: the self-cleavage was determined as 0.22.

For the variant G5C C8G C15U A16U G19A G36A A41U, the self-cleavage stood at 0.05.

A12U C13G G21U A25U C37G U43A: the self-cleavage came out at 0.02.

Regarding A6C G33A G36A C42A, the self-cleavage is 0.03.

These data come from the RNAGym collection of RNA variant scans (doi:10.7554/elife.90254).
